Assay results: article PMC6054188
These are yes or no findings as the source states them, for the method shown. For some of these results: Binding seen in cells or lysates may run through a third protein. Some results given as binding are weak or reduced against the parent protein; the word gives no strength. Tags and fused reporters may be left off the sequences shown. Each block holds one molecule with its values, some of them ahead of it.

By UniProt entry, the sequences of proteins in these tests, tags left out.
UniProt Q96524: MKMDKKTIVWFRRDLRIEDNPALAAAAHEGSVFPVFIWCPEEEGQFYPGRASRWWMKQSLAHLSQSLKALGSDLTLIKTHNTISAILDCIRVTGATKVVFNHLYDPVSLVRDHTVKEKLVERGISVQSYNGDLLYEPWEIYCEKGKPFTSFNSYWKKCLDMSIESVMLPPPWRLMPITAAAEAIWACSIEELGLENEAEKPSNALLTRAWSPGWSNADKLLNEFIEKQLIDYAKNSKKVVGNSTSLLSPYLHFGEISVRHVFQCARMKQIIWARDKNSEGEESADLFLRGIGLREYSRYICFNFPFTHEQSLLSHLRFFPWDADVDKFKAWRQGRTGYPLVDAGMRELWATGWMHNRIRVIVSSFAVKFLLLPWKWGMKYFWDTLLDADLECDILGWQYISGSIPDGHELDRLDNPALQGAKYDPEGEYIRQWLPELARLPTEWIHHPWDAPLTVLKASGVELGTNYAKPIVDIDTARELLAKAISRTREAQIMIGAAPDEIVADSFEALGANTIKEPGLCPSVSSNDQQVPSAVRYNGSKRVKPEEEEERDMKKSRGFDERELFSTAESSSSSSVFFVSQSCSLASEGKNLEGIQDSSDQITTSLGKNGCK
UniProt P05804: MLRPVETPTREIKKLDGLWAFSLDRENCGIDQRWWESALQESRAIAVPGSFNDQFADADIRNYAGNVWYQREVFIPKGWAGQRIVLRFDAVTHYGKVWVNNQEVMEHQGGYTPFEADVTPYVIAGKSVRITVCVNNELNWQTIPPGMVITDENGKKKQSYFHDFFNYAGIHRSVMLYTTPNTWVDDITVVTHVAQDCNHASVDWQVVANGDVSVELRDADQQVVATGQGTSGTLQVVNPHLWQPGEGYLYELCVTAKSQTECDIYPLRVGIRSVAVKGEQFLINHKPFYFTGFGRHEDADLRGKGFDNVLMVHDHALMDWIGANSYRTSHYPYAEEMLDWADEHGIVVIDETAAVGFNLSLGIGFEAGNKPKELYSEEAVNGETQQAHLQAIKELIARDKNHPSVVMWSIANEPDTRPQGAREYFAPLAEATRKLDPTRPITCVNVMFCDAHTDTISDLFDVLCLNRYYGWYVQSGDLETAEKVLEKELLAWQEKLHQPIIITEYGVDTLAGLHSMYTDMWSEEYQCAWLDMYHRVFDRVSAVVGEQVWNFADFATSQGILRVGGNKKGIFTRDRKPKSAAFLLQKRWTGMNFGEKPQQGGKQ
UniProt Q43125: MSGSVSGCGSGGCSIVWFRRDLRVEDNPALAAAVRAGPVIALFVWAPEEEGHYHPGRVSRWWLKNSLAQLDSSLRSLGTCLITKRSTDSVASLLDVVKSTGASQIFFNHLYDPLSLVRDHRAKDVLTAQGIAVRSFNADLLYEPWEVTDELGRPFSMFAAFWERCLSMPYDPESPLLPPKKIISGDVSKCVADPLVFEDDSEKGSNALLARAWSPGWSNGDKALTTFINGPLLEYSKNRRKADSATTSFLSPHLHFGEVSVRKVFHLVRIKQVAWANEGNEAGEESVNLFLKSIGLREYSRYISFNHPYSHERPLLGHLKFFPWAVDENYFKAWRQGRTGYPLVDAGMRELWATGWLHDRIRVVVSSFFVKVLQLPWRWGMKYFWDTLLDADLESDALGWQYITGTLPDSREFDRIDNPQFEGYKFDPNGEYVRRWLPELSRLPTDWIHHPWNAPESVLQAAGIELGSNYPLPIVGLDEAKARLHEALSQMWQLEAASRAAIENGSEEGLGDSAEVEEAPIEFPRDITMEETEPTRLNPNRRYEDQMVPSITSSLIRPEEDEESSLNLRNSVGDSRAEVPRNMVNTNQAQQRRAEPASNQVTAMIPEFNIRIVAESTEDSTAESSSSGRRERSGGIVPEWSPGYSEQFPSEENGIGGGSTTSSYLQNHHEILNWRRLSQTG

Tests used:
[1] = target: T1, HBI1-Flag (Arabidopsis thaliana) (UniProt Q9ZPW3); test: co-IP; tobacco leaves transiently co-expressing Flag-tagged and YFP-tagged proteins, kept in dim light 3 d; anti-Flag on protein G magnetic beads, TBST, 4 °C, elution with 3×Flag peptide; blots with anti-Flag and anti-GFP
T1 sequence: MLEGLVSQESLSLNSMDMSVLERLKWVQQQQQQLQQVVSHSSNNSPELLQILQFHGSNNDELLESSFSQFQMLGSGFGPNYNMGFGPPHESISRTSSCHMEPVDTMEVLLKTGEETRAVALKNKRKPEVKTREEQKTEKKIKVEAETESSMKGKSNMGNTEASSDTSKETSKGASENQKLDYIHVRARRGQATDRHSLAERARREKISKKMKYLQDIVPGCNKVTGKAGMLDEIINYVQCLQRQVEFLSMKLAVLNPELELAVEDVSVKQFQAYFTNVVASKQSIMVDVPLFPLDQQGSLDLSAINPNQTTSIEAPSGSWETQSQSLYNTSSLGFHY

[2] = target: T2, MBP–HBI1 (Arabidopsis thaliana) (UniProt Q9ZPW3); test: pull-down; semi-in vivo; MBP–HBI1-conjugated beads with extracts of CRY1-OX seedlings kept in darkness 2 d and exposed to blue light (50 μmol m^-2 s^-1) for 3 h; TBST, 4 °C, 30 min; anti-Myc blot; only the target purified
T2 sequence: T1 sequence

[3] = target: T2, MBP–HBI1 (Arabidopsis thaliana); test: pull-down; semi-in vivo; MBP–HBI1-conjugated beads with extracts of CRY1-OX seedlings kept in continuing darkness; TBST, 4 °C, 30 min; anti-Myc blot; only the target purified
[4] = target: T2, MBP–HBI1 (Arabidopsis thaliana); test: pull-down; semi-in vivo; MBP–HBI1-conjugated beads with extracts of CRY1-OX seedlings kept in darkness 2 d and exposed to red light (30 μmol m^-2 s^-1) for 3 h; TBST, 4 °C, 30 min; anti-Myc blot; only the target purified
[5] = target: T2, MBP–HBI1 (Arabidopsis thaliana); test: pull-down; semi-in vivo; MBP–HBI1-conjugated beads with extracts of CRY1-OX seedlings kept in darkness 2 d and exposed to far-red light (10 μmol m^-2 s^-1) for 3 h; TBST, 4 °C, 30 min; anti-Myc blot; only the target purified
[6] = target: full-length CRY2 (cryptochrome 2) fused to the GAL4 DNA-binding domain (Arabidopsis thaliana) (UniProt Q96524); test: two-hybrid; GAL4 system, pGBKT7 bait and pGADT7 prey co-transformed into AH109; growth on selective media with 3AT (2, 5 or 10 mM by pair) in darkness for 3 d
[7] = target: full-length CRY2 (cryptochrome 2) fused to the GAL4 DNA-binding domain (Arabidopsis thaliana) (UniProt Q96524); test: two-hybrid; GAL4 system, pGBKT7 bait and pGADT7 prey co-transformed into AH109; growth on selective media with 3AT (5 or 10 mM by pair) in continuous 30 μmol m^-2 s^-1 blue light for 3 d

binding [1]: no binding
Molecule: GUS–NLS–YFP (from UniProt P05804 1-603) (enzyme)

binding [2]: binds
Molecule: Myc-CRY1 (from UniProt Q43125 1-681)
binding [3]: no binding (condition: seedlings adapted in darkness) | binding [4]: no binding (condition: seedlings exposed to red light) | binding [5]: no binding (condition: seedlings exposed to far-red light)

binding [6]: binds | binding [7]: binds
B1: full-length HBI1 (homolog of BEE2 interacting with IBH 1) fused to the GAL4 activation domain (protein, UniProt Q9ZPW3 1-337)
chain: T1 sequence
